The other results are listed elsewhere or left out.
These sequences were tested against T1, MBP-FoxP1dN (Mus musculus, UniProt P58462 326-579) (assay: PD-seq (MBP pull-down with sequencing); 20 mM Tris-HCl pH 7.5, 100 mM NaCl, 1.5 mM MgCl2, 0.4 uM protein, 0.1 uM dsDNA library, 30 min, room temperature, amylose pull-down; high values mean tight binding). Details: protein: recombinant; tags: His6-MBP; chain copies: 2; dsDNA, one strand shown.
T1 sequence: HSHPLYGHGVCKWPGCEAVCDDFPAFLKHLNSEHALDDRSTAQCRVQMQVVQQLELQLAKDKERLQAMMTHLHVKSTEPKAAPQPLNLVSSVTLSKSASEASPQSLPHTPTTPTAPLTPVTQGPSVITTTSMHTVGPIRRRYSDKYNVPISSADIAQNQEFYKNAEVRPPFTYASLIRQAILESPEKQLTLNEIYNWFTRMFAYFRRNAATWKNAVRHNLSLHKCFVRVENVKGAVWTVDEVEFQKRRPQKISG
Method in brief: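 Amylose resin was used to capture complexes formed during 30 min at room temperature in Tris pH 7.5 buffer with NaCl and MgCl2 between 0.4 µM His6-MBP-tagged mouse FoxP3 or FoxP1 fragment lacking the N-terminus, expressed in E. coli, and 0.1 µM Klenow-filled double-stranded degenerate DNA library. After three washes, the DNA was released with proteinase K, barcoded by PCR and sequenced on Illumina. Binding is pooled-replicate reads-per-million enrichment, pull-down over input.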
With “GATGATTGTTCTCCCAGCTGATGAATTATGATTATCGAGTAAACAAATTTTCCTAATCTTTCTGTTCAAGCGCCATCTAC” the binding signal was 1.51 RPM ratio (pull-down/input).
“GATGATTGTTCTCCCAGCTGATGAATTTCGGTAATCGAGTAAACAAATTTTCCTAATCTTTCTGTTCAAGCGCCATCTAC” was tested, and the binding signal was 1.38 RPM ratio (pull-down/input).
“GATGATTGTTCTCCCAGCTGATGAATTCTATTTATCGAGTAAACAAATTTTCCTAATCTTTCTGTTCAAGCGCCATCTAC” was tested, and the binding signal was 2.58 RPM ratio (pull-down/input).
“GATGATTGTTCTCCCAGCTGATGAATTGGGCTGGTCGAGTAAACAAATTTTCCTAATCTTTCTGTTCAAGCGCCATCTAC” was tested, and the binding signal was 0.795 RPM ratio (pull-down/input).
For “GATGATTGTTCTCCCAGCTGATGAATTGATGTGCTCGAGTAAACAAATTTTCCTAATCTTTCTGTTCAAGCGCCATCTAC”, the binding signal was 1.13 RPM ratio (pull-down/input).
For “GATGATTGTTCTCCCAGCTGATGAATTAGGCGCTTCGAGTAAACAAATTTTCCTAATCTTTCTGTTCAAGCGCCATCTAC”, the binding signal was 0.907 RPM ratio (pull-down/input).
With “GATGATTGTTCTCCCAGCTGATGAATTATAATGCTCGAGTAAACAAATTTTCCTAATCTTTCTGTTCAAGCGCCATCTAC” the binding signal was 1.31 RPM ratio (pull-down/input).
With “GATGATTGTTCTCCCAGCTGATGAATTATTCCCTTCGAGTAAACAAATTTTCCTAATCTTTCTGTTCAAGCGCCATCTAC” the binding signal was 1.01 RPM ratio (pull-down/input).
With “GATGATTGTTCTCCCAGCTGATGAATTGAACGAATCGAGTAAACAAATTTTCCTAATCTTTCTGTTCAAGCGCCATCTAC” the binding signal was 0.893 RPM ratio (pull-down/input).
In the case of “GATGATTGTTCTCCCAGCTGATGAATTGCCATCTTCGAGTAAACAAATTTTCCTAATCTTTCTGTTCAAGCGCCATCTAC”, the binding signal is reported as 0.967 RPM ratio (pull-down/input).
In the case of “GATGATTGTTCTCCCAGCTGATGAATTACTCCTATCGAGTAAACAAATTTTCCTAATCTTTCTGTTCAAGCGCCATCTAC”, the binding signal is reported as 0.977 RPM ratio (pull-down/input).
In the case of “GATGATTGTTCTCCCAGCTGATGAATTCTGTGGGTCGAGTAAACAAATTTTCCTAATCTTTCTGTTCAAGCGCCATCTAC”, the binding signal is reported as 0.836 RPM ratio (pull-down/input).
For “GATGATTGTTCTCCCAGCTGATGAATTTCCGCGATCGAGTAAACAAATTTTCCTAATCTTTCTGTTCAAGCGCCATCTAC”, the binding signal was 0.858 RPM ratio (pull-down/input).
In the case of “GATGATTGTTCTCCCAGCTGATGAATTTTCTAACTCGAGTAAACAAATTTTCCTAATCTTTCTGTTCAAGCGCCATCTAC”, the binding signal is reported as 0.937 RPM ratio (pull-down/input).
With “GATGATTGTTCTCCCAGCTGATGAATTCAAGATTTCGAGTAAACAAATTTTCCTAATCTTTCTGTTCAAGCGCCATCTAC” the binding signal was 0.867 RPM ratio (pull-down/input).
With “GATGATTGTTCTCCCAGCTGATGAATTAGAGATTTCGAGTAAACAAATTTTCCTAATCTTTCTGTTCAAGCGCCATCTAC” the binding signal was 0.943 RPM ratio (pull-down/input).
With “GATGATTGTTCTCCCAGCTGATGAATTGTCCTACTCGAGTAAACAAATTTTCCTAATCTTTCTGTTCAAGCGCCATCTAC” the binding signal was 1 RPM ratio (pull-down/input).
For “GATGATTGTTCTCCCAGCTGATGAATTTACAAGCTCGAGTAAACAAATTTTCCTAATCTTTCTGTTCAAGCGCCATCTAC”, the binding signal was 1.25 RPM ratio (pull-down/input).
“GATGATTGTTCTCCCAGCTGATGAATTAAGGCGGTCGAGTAAACAAATTTTCCTAATCTTTCTGTTCAAGCGCCATCTAC” was tested, and the binding signal was 0.859 RPM ratio (pull-down/input).
“GATGATTGTTCTCCCAGCTGATGAATTTGGCGAGTCGAGTAAACAAATTTTCCTAATCTTTCTGTTCAAGCGCCATCTAC” was tested, and the binding signal was 0.827 RPM ratio (pull-down/input).
For “GATGATTGTTCTCCCAGCTGATGAATTCGAAGCATCGAGTAAACAAATTTTCCTAATCTTTCTGTTCAAGCGCCATCTAC”, the binding signal was 1.05 RPM ratio (pull-down/input).
With “GATGATTGTTCTCCCAGCTGATGAATTGTGCAAATCGAGTAAACAAATTTTCCTAATCTTTCTGTTCAAGCGCCATCTAC” the binding signal was 1.25 RPM ratio (pull-down/input).
For “GATGATTGTTCTCCCAGCTGATGAATTCACTGGATCGAGTAAACAAATTTTCCTAATCTTTCTGTTCAAGCGCCATCTAC”, the binding signal was 0.843 RPM ratio (pull-down/input).
For “GATGATTGTTCTCCCAGCTGATGAATTCCTGTTATCGAGTAAACAAATTTTCCTAATCTTTCTGTTCAAGCGCCATCTAC”, the binding signal was 1.65 RPM ratio (pull-down/input).
“GATGATTGTTCTCCCAGCTGATGAATTGACATCATCGAGTAAACAAATTTTCCTAATCTTTCTGTTCAAGCGCCATCTAC” was tested, and the binding signal was 1.43 RPM ratio (pull-down/input).
“GATGATTGTTCTCCCAGCTGATGAATTTTAGACGTCGAGTAAACAAATTTTCCTAATCTTTCTGTTCAAGCGCCATCTAC” was tested, and the binding signal was 0.944 RPM ratio (pull-down/input).
With “GATGATTGTTCTCCCAGCTGATGAATTAATTTCTTCGAGTAAACAAATTTTCCTAATCTTTCTGTTCAAGCGCCATCTAC” the binding signal was 0.986 RPM ratio (pull-down/input).
For “GATGATTGTTCTCCCAGCTGATGAATTTCGCCAATCGAGTAAACAAATTTTCCTAATCTTTCTGTTCAAGCGCCATCTAC”, the binding signal was 1.01 RPM ratio (pull-down/input).
In the case of “GATGATTGTTCTCCCAGCTGATGAATTACAAAGGTCGAGTAAACAAATTTTCCTAATCTTTCTGTTCAAGCGCCATCTAC”, the binding signal is reported as 1.12 RPM ratio (pull-down/input).
For “GATGATTGTTCTCCCAGCTGATGAATTTAGGGGGTCGAGTAAACAAATTTTCCTAATCTTTCTGTTCAAGCGCCATCTAC”, the binding signal was 0.799 RPM ratio (pull-down/input).
“GATGATTGTTCTCCCAGCTGATGAATTTGACGCCTCGAGTAAACAAATTTTCCTAATCTTTCTGTTCAAGCGCCATCTAC” was tested, and the binding signal was 0.936 RPM ratio (pull-down/input).
With “GATGATTGTTCTCCCAGCTGATGAATTGCAGCGCTCGAGTAAACAAATTTTCCTAATCTTTCTGTTCAAGCGCCATCTAC” the binding signal was 0.997 RPM ratio (pull-down/input).
In the case of “GATGATTGTTCTCCCAGCTGATGAATTTTTCCTGTCGAGTAAACAAATTTTCCTAATCTTTCTGTTCAAGCGCCATCTAC”, the binding signal is reported as 0.903 RPM ratio (pull-down/input).
With “GATGATTGTTCTCCCAGCTGATGAATTTATCCGCTCGAGTAAACAAATTTTCCTAATCTTTCTGTTCAAGCGCCATCTAC” the binding signal was 0.989 RPM ratio (pull-down/input).
With “GATGATTGTTCTCCCAGCTGATGAATTCTGTCAGTCGAGTAAACAAATTTTCCTAATCTTTCTGTTCAAGCGCCATCTAC” the binding signal was 0.879 RPM ratio (pull-down/input).
“GATGATTGTTCTCCCAGCTGATGAATTACACGCGTCGAGTAAACAAATTTTCCTAATCTTTCTGTTCAAGCGCCATCTAC” was tested, and the binding signal was 1.18 RPM ratio (pull-down/input).
With “GATGATTGTTCTCCCAGCTGATGAATTCCGCTTTTCGAGTAAACAAATTTTCCTAATCTTTCTGTTCAAGCGCCATCTAC” the binding signal was 0.9 RPM ratio (pull-down/input).
For “GATGATTGTTCTCCCAGCTGATGAATTATAAGTATCGAGTAAACAAATTTTCCTAATCTTTCTGTTCAAGCGCCATCTAC”, the binding signal was 1.19 RPM ratio (pull-down/input).
For “GATGATTGTTCTCCCAGCTGATGAATTCATATTGTCGAGTAAACAAATTTTCCTAATCTTTCTGTTCAAGCGCCATCTAC”, the binding signal was 1.9 RPM ratio (pull-down/input).
“GATGATTGTTCTCCCAGCTGATGAATTTGAACTGTCGAGTAAACAAATTTTCCTAATCTTTCTGTTCAAGCGCCATCTAC” was tested, and the binding signal was 0.807 RPM ratio (pull-down/input).

From publication PMC12820563, “FoxP3 forms a head-to-head dimer in vivo and stabilizes its multimerization on adjacent microsatellites”
